# The campaign covered roughly 310,000 compounds. About 11,000 (3.5%) were called active. The shares of active, inactive and inconclusive entries below differ from those in the screen. The call rests on the fitted dose curve; in most records, active means well fitted inhibition curve with a large enough effect; inconclusive means small, poorly fitted or top-dose-only effect, or effect the other way; inactive means flat fitted curve, though single readings scatter. Potencies of inconclusive entries are left out as doubtful fits.
# Assay: VP16 counterscreen qHTS for inhibitors of ROR gamma transcriptional activity;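 further: Gal4-VP16 expression switched on by copper sulfate through the metallothionein promoter; nearly all actives have a fitted effect of over 50% in size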
# Conditions: Drosophila S2 Gal4-VP16 UAS-luciferase, luminescence, 20 h; activity, negative = inhibition: at 53.6 µM (top of the series)
# On the % scale 0 is the no-effect control and ±100 the full control effect; potency means the concentration at half of the fitted maximal effect; tags describe the fitted curve by direction and shape.
SMILES,Potency,"activity, negative = inhibition"
CCCCc1ccc(S(=O)(=O)NNC(=S)NCc2ccco2)cc1,"inconclusive [inhibitor, single point]",–
S=c1[nH]ncn1NCc1ccc(Cl)cc1Cl,"inconclusive [inhibitor, single point]",–
O=C(CSCc1ccccc1F)NCc1ccc(F)cc1,–,inactive: -14%
CC(CN1CCN(c2ccccc2)CC1)c1ccccc1 (stereo not drawn),"inconclusive [inhibitor, partial curve, poor fit]",–
CN(C)c1ccc(/C=N/n2c(C3CCCCC3)n[nH]c2=S)cc1,active: 6.31 µM,–
O=C(Nc1cc([N+](=O)[O-])ccc1F)c1ccc2ccccc2c1,"inconclusive [inhibitor, single point]",–
COc1cc(N2CCCC2)c(OC)cc1C=O,"inconclusive [inhibitor, partial curve]",–
Cc1ccc2c(c1)C1NC(=S)NC(C)(O2)C1C(=O)Nc1ccc(Cl)cc1 (stereo not drawn),"inconclusive [inhibitor, single point]",–
c1ccc2sc(-c3ccc4c(c3)OCO4)nc2c1,active: 2.24 µM,–
CCCCCCC1CC(=O)NC(=S)N1 (stereo not drawn),"inconclusive [inhibitor, partial curve, poor fit]",–
Cc1cc(C)cc(NC(=S)NCCc2ccc(S(N)(=O)=O)cc2)c1,"inconclusive [activator, single point]",–
COc1cccc(-c2ccc(NC(=O)C3CCCN(Cc4nccn4C)C3)cc2)c1 (stereo not drawn),"inconclusive [inhibitor, single point]",–
COc1cc(NC(=O)COc2cc(C)cc3oc(=O)c(C)c(C)c23)cc(OC)c1OC,"inconclusive [inhibitor, full curve]",–
CNc1cnn(-c2ccccc2)c(=O)c1Cl,–,inactive: 14.2%
COc1ccccc1NS(=O)(=O)c1cc([N+](=O)[O-])ccc1N/N=C/c1c(C)[nH]c2ccccc12,–,inactive: -8.45%
Cc1cc(C(=O)Nc2cccc(O)c2)co1,"inconclusive [inhibitor, single point]",–
NC(=O)c1ccccc1OCC(=O)Nc1ccc(Cl)c(Cl)c1,"inconclusive [inhibitor, single point]",–
COc1ccc(-c2oc(NC(=O)CCl)c(C#N)c2-c2ccc(OC)cc2)cc1,"inconclusive [inhibitor, single point]",–
CCOC(=O)c1[nH]c2ccccc2c1NC(=S)Nc1ccccc1,"inconclusive [activator, single point]",–
CS(=O)(=O)N1CCN(C(=O)c2cc(-c3ccncc3)nc3ccc(Cl)cc23)CC1,–,inactive: 8.95%
Cc1ccc(C(=O)CSc2ccc(-c3cccnc3)nn2)cc1,active: 2.51 µM,–
Cc1cccc(/C(N)=N/OC(=O)c2ccco2)c1,"inconclusive [inhibitor, single point]",–
COc1ccc(CCNC(=O)C2CCN(C(=O)c3ccc(Cl)cc3)CC2)cc1,–,inactive: -1.65%
O=C1CC(N(CCc2ccccc2)C(=S)Nc2ccccc2)C(=O)N1c1ccc(Br)cc1 (stereo not drawn),"inconclusive [inhibitor, single point]",–

SMILES,Potency,"activity, negative = inhibition"
O=C(Nc1ccccc1F)C1CC1c1ccccc1 (stereo not drawn),"inconclusive [activator, full curve, poor fit]",–
CN(c1ccc(C(=O)N2CCOCC2)cc1[N+](=O)[O-])C1CCCCC1,–,inactive: 16.7%
CCOC(=O)C(=N/O)/C(C)=N/NC(=O)C(=O)Nc1ccc(Cl)cc1,active: 20 µM,–
Cc1cccc(C(=O)OC2CCOC2=O)c1C (stereo not drawn),–,inactive: 6.95%
Cc1cccc(NC(=O)c2ccc(N3CCCCC3)c([N+](=O)[O-])c2)n1,"inconclusive [inhibitor, partial curve, poor fit]",–
COc1cccc(C(=O)NC(=S)N2CCN(c3ccc(C(F)(F)F)cc3[N+](=O)[O-])CC2)c1,active: 0.631 µM,–
Cc1ccc2nc(C(F)OC(F)(F)F)[nH]c2c1 (stereo not drawn),"inconclusive [inhibitor, single point]",–
COc1ccc(C(=O)Nc2ccccc2C(=O)N/N=C/c2ccco2)cc1,active: 10 µM,–
Oc1ccc(/C=N/Nc2ncnc3nc[nH]c23)cc1,"inconclusive [inhibitor, partial curve]",–
COc1cccc(NC(=O)Cc2cn(C)c3ccccc23)c1,"inconclusive [activator, single point]",–
CC1Sc2ccc(C(=O)O)cc2NC1=O (stereo not drawn),–,inactive: -2.19%
C=CCn1c(=O)n(CC=C)c(=O)n(CC=C)c1=O,–,inactive: 6.8%
O=C(Nc1ccc(N2CCCCC2)cc1)c1cncc(Br)c1,–,inactive: 1.14%
COCCn1c(=S)[nH]c2cc(C(=O)N3CCCC(C)C3)ccc2c1=O (stereo not drawn),"inconclusive [inhibitor, single point]",–
COc1cccc(CN2CC(O)=C(c3nc(-c4ccc(Cl)cc4)cs3)C2=N)c1,"inconclusive [inhibitor, partial curve, poor fit]",–
CCc1c(C)sc(NC(=O)/C=C/C(=O)O)c1C(N)=O,–,inactive: -3.86%
CC(Oc1ccc(Cl)cc1Cl)c1nc(-c2ccc(NC(=O)c3cccnc3)cc2)no1 (stereo not drawn),"inconclusive [inhibitor, single point]",–
S=C(NCCc1ccccc1)NCc1ccccc1Cl,"inconclusive [inhibitor, single point]",–
COc1ccc(CC(=O)NCC2CCCN(Cc3cc(OC)cc(OC)c3)C2)cc1 (stereo not drawn),–,inactive: -4.8%
COC1C(O)C(CO)OC1n1c(Br)nc2c(=O)[nH]c(N)nc21 (stereo not drawn),–,inactive: 8.42%
CCc1ccc(Nc2nnc(SCC(=O)NCCN3C(=O)CSC3=O)s2)cc1,"inconclusive [inhibitor, single point]",–
Cc1cc(OCC(=O)Nc2ccncc2)ccc1Br,"inconclusive [inhibitor, partial curve]",–
CCOC(=O)c1ccccc1NC1c2ccccc2C(=O)N1c1ccc(C)cn1 (stereo not drawn),"inconclusive [activator, partial curve, poor fit]",–
COc1cc(/C=C/c2cc[n+](C)cc2)ccc1OCC(=O)Nc1ccccc1,–,inactive: -6.25%

# From PubChem BioAssay AID2546 (National Center for Advancing Translational Sciences (NCATS), 2010)
